# According to the supplement of paper PMC3334620:
# The full ranking holds about 33,000 sequences; the median of “E-score (-0.5 to 0.5)” is about -0.016, and the highest 2% start at about 0.31. Some of the results follow.
# Target: Cst6 (UniProt P40535)
# Assay: PBM E-score (8-mer binding enrichment) (E-score (-0.5 to 0.5)); higher = stronger / more preferred TF binding; most listed sequences are background and not binding sites
# Details: protein concentration: 200 nM; construct: GST-DNA-binding domain
# In short: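 The E-score, a modified Wilcoxon-Mann-Whitney statistic, was computed by the Universal PBM Analysis Suite for every ungapped eight-base word pooled with its reverse complement. Scans behind it were normalised with masliner after bound GST-tagged yeast transcription factors were detected with fluorescent anti-GST. The proteins, at about 100-200 nM, had been applied to universal all-10-mer Agilent arrays made double-stranded by primer extension.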
row,Sequence,PBM E-score
1,GCGGCTCA,0.266
2,CATTTCTC,0.152
3,TGAGAAAA,0.154
4,GCACTGCC,0.0838
5,AACCCCCA,-0.377
6,AAGGGGCG,-0.284
7,AAGACCAA,-0.0345
8,GCGCTTCA,0.00479
9,GAGACTGC,-0.142
10,AAACTATG,0.0424
11,ACGTTAAA,0.195
12,CCCTGCGC,-0.153
13,TCGTGTCA,0.0699
14,ACTGATTA,0.165
15,CGTTAAAG,0.0934
16,CGTGCTTC,0.0879
17,CCACGTAG,-0.186
18,ATCACCCC,0.0738
19,AACTTATC,0.0146
20,GCGCGTCC,-0.198
21,AGCCCAGA,-0.209
22,CCTAGCCG,-0.0555
23,CTAAAAAC,-0.0449
24,CCGCTCCC,-0.329

row,Sequence,PBM E-score
1,AGACTCAC,-0.217
2,ATAAGTAT,-0.042
3,CTTCGTTA,0.11
4,CAGGTTAG,-0.116
5,ATATCTAG,0.028
6,AGGGTTTA,-0.00187
7,TCTTTAAA,0.188
8,ATTGAGGG,-0.186
9,CAGCGCCA,-0.174
10,CAATTATC,0.191
11,GTAGCGAA,-0.0567
12,ATTCGCCG,0.188
13,CGCGTAAG,0.179
14,CGACACCA,-0.0683
15,AAGTGCGG,0.116
16,CCATTGTC,-0.104
17,ATTGGGGG,-0.287
18,AGCCGTAG,0.0859
19,ACATGTTC,-0.138
20,GCCAGTAA,-0.144
21,ACAATAGA,0.139
22,CGCACTCA,0.053
23,CGATAGAG,-0.123
24,ATTCCAAA,0.118

row,Sequence,PBM E-score
1,TGACCACA,0.00133
2,GGCCGGCA,-0.06
3,AAACATAG,-0.0796
4,ACTTCTAG,-0.206
5,CTCCCACC,-0.335
6,CGTCAGGC,0.212
7,GAGGCCGA,-0.124
8,GCGTACGA,0.122
9,TAATAGGA,0.149
10,CGTCTAGA,-0.17
11,ACTTTATG,0.174
12,GATGCCAA,0.0684
13,CGTGCTCA,-0.00224
14,CCACGACG,0.00619
15,CGGCCGCC,-0.0119
16,AATTGTGC,0.201
17,CCTATCGA,-0.109
18,TAGCATAA,0.015
19,CACAATAG,-0.0192
20,GGCCGGAA,-0.275
21,AACGTCGA,0.133
22,CAAACGTG,0.0882
23,ACATATGG,0.0745
24,GGCGCAGA,0.0181

row,Sequence,PBM E-score
1,CTACAACC,-0.013
2,ACGGTAGC,-0.0866
3,CTCGCTTC,-0.238
4,ACTGGAAG,-0.153
5,GCCTAAGC,-0.194
6,GAACGCCC,-0.202
7,AATTTGGC,0.0196
8,ACGAGCGC,-0.105
9,AATTACGT,0.462
10,ATGTGATA,0.261
11,ATCCCCCA,-0.429
12,CAGCTCTC,-0.172
13,CAGCAGTA,-0.0384
14,GCATTACC,-0.088
15,TAGGACTA,-0.0879
16,AAATCTTG,0.203
17,AAGACGGG,-0.176
18,GACCGTAA,0.0286
19,AGACGGAC,0.0277
20,ACTAGCCT,-0.0938
21,ACCAGGAA,-0.176
22,ACACCCCT,-0.171
